# Source: a collection of fitness landscapes (doi:10.1016/j.celrep.2020.107928)
# Whole data set: some 81,000 sequences, median “one-hybrid fitness for binding parS DNA” near -0.17, cut for the highest 2% near 0.51. The list shows a part of the results.
# B1: Caulobacter ParB omega fusion; a variant is named by its letters at X, in order, B8GW30 (parent)
# chain: MESVVVGEPGMSEGRRGLGRGLSALLGEVDAAPAQAPGEQLGGSREAPIEILQRNPDQPRRTFREEDLEDLSNSIREKGVLQPILVRPSPDTAGEYQIVAGERAWRAAQRAGLKTVPIMVRELDDLAVLEIGIIENVQRADLNVLEEALSYKVLMEKFERTQENIAQTIGKSXSHVANXMRLLXLPDEVQSYLVSGELTAXHARAIAAAADPVALAKQIIEGGLSVRETEALARKAPNLSAGKSKGGRPPRVKDTDTQALESDLSSVLGLDVSIDHRGSTGTLTITYATLEQLDDLCNRLTRGI
# Variants of: B1
# Assay: one-hybrid fitness for binding parS DNA (scaled: cognate 1, non-cognate 0); higher = stronger binding
# Conditions: with parS DNA site
# How it was run: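 Bacterial one-hybrid selection in E. coli USO rpoZ- hisB- pyrF- with a HIS3 reporter carrying the site 19 bp from the promoter, screening Caulobacter ParB libraries with four specificity codons randomised (NNS). Cells grew 48 hours at 37°C on M9-minus-histidine plus 0.1 mM IPTG and 5 mM 3-AT. Plasmids before and after selection were Illumina-sequenced, three replicate libraries pooled, and variants under 10 reads dropped. Fitness is the log change in variant-to-wild-type read ratio, rescaled to cognate 1, non-cognate 0.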
row,Variant,one-hybrid fitness for binding parS DNA
1,SIRL,≤ 0.2
2,YTYS,≤ 0.2
3,CLNL,≤ 0.2
4,DPIS,≤ 0.2
5,GAVS,≤ 0.2
6,DRLY,≤ 0.2
7,CMHK,≤ 0.2
8,EVAL,≤ 0.2
9,HVMC,≤ 0.2
10,SFDD,≤ 0.2
11,CNKG,≤ 0.2
12,RKNQ,≤ 0.2
13,ETVT,≤ 0.2
14,TNQL,≤ 0.2
15,QLCG,≤ 0.2
16,KICG,≤ 0.2
17,SMVI,≤ 0.2
18,IILT,≤ 0.2
19,TFSL,≤ 0.2
20,KTPL,≤ 0.2
21,YMVA,≤ 0.2
22,RMRL,≤ 0.2
23,EVTG,≤ 0.2
24,ASWY,≤ 0.2

row,Variant,one-hybrid fitness for binding parS DNA
1,EGCG,≤ 0.2
2,ECFS,≤ 0.2
3,QNLY,≤ 0.2
4,TKGS,≤ 0.2
5,PPEL,≤ 0.2
6,KLNK,≤ 0.2
7,WLCN,≤ 0.2
8,YNKT,≤ 0.2
9,RKGV,≤ 0.2
10,EQTV,≤ 0.2
11,SFPR,≤ 0.2
12,TKSR,≤ 0.2
13,HTYI,≤ 0.2
14,QIPE,≤ 0.2
15,CDPK,≤ 0.2
16,PGNQ,≤ 0.2
17,RLCM,0.342
18,IDPT,≤ 0.2
19,DDSW,≤ 0.2
20,RHEL,≤ 0.2
21,GTVE,≤ 0.2
22,TNFF,≤ 0.2
23,NTAG,≤ 0.2
24,LPFA,0.253

row,Variant,one-hybrid fitness for binding parS DNA
1,QPVM,≤ 0.2
2,YRKH,≤ 0.2
3,CMNT,≤ 0.2
4,WIPR,≤ 0.2
5,AILC,≤ 0.2
6,QAEG,≤ 0.2
7,ERMT,≤ 0.2
8,YLMT,≤ 0.2
9,MYTF,≤ 0.2
10,PPCS,≤ 0.2
11,CAGF,≤ 0.2
12,IHED,≤ 0.2
13,ITSR,≤ 0.2
14,HYVS,≤ 0.2
15,NLGD,≤ 0.2
16,VKKH,≤ 0.2
17,ACFR,≤ 0.2
18,RTGM,0.33
19,KPSI,≤ 0.2
20,NYCR,≤ 0.2
21,SGNA,≤ 0.2
22,LQGP,≤ 0.2
23,MKCN,≤ 0.2
24,GDPW,≤ 0.2

row,Variant,one-hybrid fitness for binding parS DNA
1,QVMM,≤ 0.2
2,MILV,≤ 0.2
3,RHSK,≤ 0.2
4,DGKQ,≤ 0.2
5,AVRH,≤ 0.2
6,SAVW,≤ 0.2
7,HTSP,≤ 0.2
8,AYDL,≤ 0.2
9,RVSF,0.224
10,PRGW,≤ 0.2
11,WGLN,≤ 0.2
12,YCEG,≤ 0.2
13,HAAG,≤ 0.2
14,PAAW,≤ 0.2
15,LRIN,≤ 0.2
16,WQYR,≤ 0.2
17,PLQR,≤ 0.2
18,WTQS,≤ 0.2
19,RKIR,≤ 0.2
20,NQRS,≤ 0.2
21,VFSS,≤ 0.2
22,RHPY,≤ 0.2
23,PPSW,≤ 0.2
24,LTLY,≤ 0.2

row,Variant,one-hybrid fitness for binding parS DNA
1,DIAS,≤ 0.2
2,TAPS,≤ 0.2
3,LNLS,≤ 0.2
4,RGMC,0.543
5,AQQI,≤ 0.2
6,DASK,≤ 0.2
7,SKFC,≤ 0.2
8,QCRR,0.266
9,RRSD,≤ 0.2
10,PHHP,≤ 0.2
11,PKCQ,≤ 0.2
12,VHCG,≤ 0.2
13,DCRC,≤ 0.2
14,VLRR,≤ 0.2
15,QVKS,≤ 0.2
16,EPVK,≤ 0.2
17,GAKK,≤ 0.2
18,NSIL,≤ 0.2
19,SICS,≤ 0.2
20,VSPL,≤ 0.2
21,YSHG,≤ 0.2
22,HSGT,≤ 0.2
23,EAQS,≤ 0.2
24,LSAK,≤ 0.2

row,Variant,one-hybrid fitness for binding parS DNA
1,FLSC,≤ 0.2
2,PRAV,≤ 0.2
3,CRAG,≤ 0.2
4,TYKN,≤ 0.2
5,VVPF,≤ 0.2
6,LSRD,≤ 0.2
7,CLKT,≤ 0.2
8,TRGI,≤ 0.2
9,FTMC,≤ 0.2
10,NPHT,≤ 0.2
11,YSCC,≤ 0.2
12,MYTD,≤ 0.2
13,SLDC,≤ 0.2
14,ISAE,≤ 0.2
15,ILKM,≤ 0.2
16,VWKM,≤ 0.2
17,CCTW,≤ 0.2
18,DARV,≤ 0.2
19,KHEE,≤ 0.2
20,ETLM,≤ 0.2
21,NARR,≤ 0.2
22,CLKG,≤ 0.2
23,KIKM,≤ 0.2
24,SVCR,≤ 0.2

row,Variant,one-hybrid fitness for binding parS DNA
1,ITAC,≤ 0.2
2,NRMM,≤ 0.2
3,LRHM,≤ 0.2
4,AVWI,≤ 0.2
5,QRKT,≤ 0.2
6,KSPF,≤ 0.2
7,VGCS,≤ 0.2
8,CTGD,≤ 0.2
9,CWST,≤ 0.2
10,RPAY,≤ 0.2
11,KLQM,≤ 0.2
12,ALKH,≤ 0.2
13,RANI,≤ 0.2
14,QANE,≤ 0.2
15,QRAN,≤ 0.2
16,QAFS,≤ 0.2
17,TDAT,≤ 0.2
18,KCYW,≤ 0.2
19,SYSW,≤ 0.2
20,IPNG,≤ 0.2
21,QPSP,≤ 0.2
22,HPSP,≤ 0.2
23,SVYI,≤ 0.2
24,YNAC,≤ 0.2

row,Variant,one-hybrid fitness for binding parS DNA
1,VWNE,≤ 0.2
2,ASAQ,≤ 0.2
3,YENF,≤ 0.2
4,WFSR,≤ 0.2
5,HLAN,≤ 0.2
6,TQDS,≤ 0.2
7,LFYE,≤ 0.2
8,GWIR,≤ 0.2
9,IIPP,≤ 0.2
10,EVPF,≤ 0.2
11,ETRS,≤ 0.2
12,INMM,≤ 0.2
13,FIMF,≤ 0.2
14,SHYV,≤ 0.2
15,DQRH,≤ 0.2
16,TIDE,≤ 0.2
17,TATC,≤ 0.2
18,SADV,≤ 0.2
19,RPLG,≤ 0.2
20,QFEG,≤ 0.2
21,SMAW,≤ 0.2
22,FPWS,≤ 0.2
23,ALVV,≤ 0.2
24,RERQ,≤ 0.2

row,Variant,one-hybrid fitness for binding parS DNA
1,SNLW,≤ 0.2
2,PCYR,≤ 0.2
3,AAAV,≤ 0.2
4,EMYR,≤ 0.2
5,QVDS,≤ 0.2
6,QGAT,≤ 0.2
7,YRPT,≤ 0.2
8,EDQC,≤ 0.2
9,PWRP,≤ 0.2
10,MCFS,≤ 0.2
11,LFHT,≤ 0.2
12,APQT,≤ 0.2
13,DPSL,≤ 0.2
14,NLFK,≤ 0.2
15,TPKR,≤ 0.2
16,EIES,≤ 0.2
17,DELH,≤ 0.2
18,VHKT,≤ 0.2
19,TCRW,≤ 0.2
20,WFIS,≤ 0.2
21,HLDN,≤ 0.2
22,MPES,≤ 0.2
23,HHWR,≤ 0.2
24,WSTG,≤ 0.2

row,Variant,one-hybrid fitness for binding parS DNA
1,QWTL,≤ 0.2
2,KNKC,≤ 0.2
3,AYMV,≤ 0.2
4,EDQL,≤ 0.2
5,ENAF,≤ 0.2
6,HMHC,≤ 0.2
7,RTWL,≤ 0.2
8,RRRC,0.634
9,RNIG,0.597
10,TTPA,≤ 0.2
11,LGRF,≤ 0.2
12,QSKI,≤ 0.2
13,CGKG,≤ 0.2
14,HAYS,≤ 0.2
15,DWPR,≤ 0.2
16,NAVE,≤ 0.2
17,QVYW,≤ 0.2
18,NQKR,≤ 0.2
19,YWAS,≤ 0.2
20,AIFG,≤ 0.2
21,ETTV,≤ 0.2
22,LYWL,≤ 0.2
23,GRGC,≤ 0.2
24,KLHT,≤ 0.2

row,Variant,one-hybrid fitness for binding parS DNA
1,WMRT,≤ 0.2
2,TSQY,≤ 0.2
3,MENG,≤ 0.2
4,DIER,≤ 0.2
5,NNYY,≤ 0.2
6,HSVR,≤ 0.2
7,DAAD,≤ 0.2
8,PGGS,≤ 0.2
9,RLQL,≤ 0.2
10,NLQY,≤ 0.2
11,WYDC,≤ 0.2
12,TERI,≤ 0.2
13,QKVH,≤ 0.2
14,ANTD,≤ 0.2
15,CSPS,≤ 0.2
16,IISW,≤ 0.2
17,LPAE,≤ 0.2
18,GTER,≤ 0.2
19,KIPI,≤ 0.2
20,AIME,≤ 0.2
21,DHPC,≤ 0.2
22,RNKV,≤ 0.2
23,ILPA,≤ 0.2
24,ELSK,≤ 0.2

row,Variant,one-hybrid fitness for binding parS DNA
1,WNAG,≤ 0.2
2,CQKT,≤ 0.2
3,TCYD,≤ 0.2
4,PILW,≤ 0.2
5,PQSY,≤ 0.2
6,CSPI,≤ 0.2
7,PASD,≤ 0.2
8,NDDC,≤ 0.2
9,CHKL,≤ 0.2
10,PVTQ,≤ 0.2
11,DWPT,≤ 0.2
12,VPHG,≤ 0.2
13,GNYY,≤ 0.2
14,WNSI,≤ 0.2
15,RNIH,≤ 0.2
16,MWYS,≤ 0.2
17,AETN,≤ 0.2
18,LQIR,≤ 0.2
19,GLWL,≤ 0.2
20,VTNE,≤ 0.2
21,GTKC,≤ 0.2
22,VSPY,≤ 0.2
23,AHSW,≤ 0.2
24,RTDN,0.404

row,Variant,one-hybrid fitness for binding parS DNA
1,TLHQ,≤ 0.2
2,CTFS,≤ 0.2
3,TSEW,≤ 0.2
4,WGET,≤ 0.2
5,RSFH,≤ 0.2
6,MEIG,≤ 0.2
7,EIYF,≤ 0.2
8,DLCT,≤ 0.2
9,PMTV,≤ 0.2
10,RAAP,≤ 0.2
11,QTIP,≤ 0.2
12,SRNM,≤ 0.2
13,GYHT,≤ 0.2
14,QNFL,≤ 0.2
15,MSNC,≤ 0.2
16,VNGS,≤ 0.2
17,RNAE,≤ 0.2
18,NITI,≤ 0.2
